In PubChem BioAssay AID485360 (National Center for Advancing Translational Sciences (NCATS), 2010):
The campaign covered roughly 230,000 compounds. About 1,500 (0.65%) were called active. Inconclusive results, whose numbers are uncertain, are shown with a selection of clear calls. Calls follow the shape of the dose curve; as a rule, active = well fitted inhibition curve with a large enough effect; inconclusive = small, poorly fitted or top-dose-only effect; inactive = no such curve, though single readings can be large or run the other way. Potencies beside an inconclusive call are fits to weak or partial responses and may not hold up.

target: Lethal(3)malignant brain tumor-like protein 1 (Homo sapiens) (UniProt Q9Y468); experiment: qHTS Assay for the Inhibitors of L3MBTL1; conditions: AlphaScreen L3MBTL1–H3K9me1 peptide binding; activity, negative = inhibition: at 57.1 µM (top of the series); also: nearly all actives have a fitted effect of over 60% in size
Outline: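 AlphaScreen assay: L3MBTL1 (50 nM final) was preincubated 30 min at room temperature with biotinylated H3(1-15)K9me1 peptide (75 nM final), then 30 min with library compounds; streptavidin donor and nickel chelate acceptor beads (10 ug/mL final) added, 30 min dark.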
% is scaled to controls: 0 for no effect and ±100 for the full control effect; potency is read from the fitted curve at half-maximal effect; tags tell the direction and shape of the fitted curve.

Chain of UniProt Q9Y468 (Q9Y468 whole entry, looked up): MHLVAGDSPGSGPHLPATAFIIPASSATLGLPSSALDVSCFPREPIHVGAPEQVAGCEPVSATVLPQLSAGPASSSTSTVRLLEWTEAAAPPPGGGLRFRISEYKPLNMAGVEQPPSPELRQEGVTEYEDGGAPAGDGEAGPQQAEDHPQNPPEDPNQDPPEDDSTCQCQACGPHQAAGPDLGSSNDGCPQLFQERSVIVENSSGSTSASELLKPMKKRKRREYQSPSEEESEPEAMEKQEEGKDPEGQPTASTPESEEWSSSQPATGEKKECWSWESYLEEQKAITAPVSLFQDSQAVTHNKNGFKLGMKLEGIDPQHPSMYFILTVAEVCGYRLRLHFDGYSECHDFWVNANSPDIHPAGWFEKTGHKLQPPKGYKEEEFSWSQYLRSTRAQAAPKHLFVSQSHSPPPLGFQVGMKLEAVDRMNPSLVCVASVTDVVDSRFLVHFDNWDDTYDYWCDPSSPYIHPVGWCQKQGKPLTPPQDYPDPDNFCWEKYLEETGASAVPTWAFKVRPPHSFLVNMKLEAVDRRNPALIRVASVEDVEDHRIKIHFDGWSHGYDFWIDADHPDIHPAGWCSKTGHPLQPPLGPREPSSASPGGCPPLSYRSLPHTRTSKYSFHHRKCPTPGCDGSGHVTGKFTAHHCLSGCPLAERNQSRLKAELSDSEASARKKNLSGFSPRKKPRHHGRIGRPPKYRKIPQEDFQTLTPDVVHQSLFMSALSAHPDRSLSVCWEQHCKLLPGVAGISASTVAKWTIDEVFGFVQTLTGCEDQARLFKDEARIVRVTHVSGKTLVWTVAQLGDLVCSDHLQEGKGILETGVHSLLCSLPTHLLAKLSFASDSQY

Question: With `COc1ccc(/C=N/Nc2nc3ccccc3[nH]2)c(OC)c1OC` as the compound, how does the Potency read?
Answer: inconclusive: 25.1 µM [inhibitor, single point]

Question: With `N#CCSc1ccsc1C(=O)Nc1ccc(F)cc1` as the compound, how does the “activity, negative = inhibition” value read?
Answer: inactive: -14.7%

Question: With `CC(C)c1ccc(Nc2c([N+](=O)[O-])c(=O)n(C)c3ccccc23)cc1` as the compound, how does the Potency read?
Answer: inconclusive: 17.8 µM [inhibitor, partial curve]

Question: `Cc1cccc2c1N(CCOc1ccc(C(C)(C)C)cc1)C(=O)C2=O` was tested. Which Potency did it give?
Answer: inconclusive: 14.1 µM [inhibitor, partial curve]

Question: `O=C(Cn1cnc2nc3n(c2c1=O)CCC3)NCc1ccccc1` was tested. Which Potency did it give?
Answer: inconclusive: 6.31 µM [inhibitor, single point]

Question: How did the Potency turn out when `COc1cc(S(=O)(=O)N2CCN(Cc3ccc4c(c3)OCO4)CC2)c(C)cc1C` was run?
Answer: inconclusive: 28.2 µM [inhibitor, single point]

Question: How did the “activity, negative = inhibition” value turn out when `CCOCCCNC(=S)N(CCN(C)C)Cc1cc2cc3c(cc2[nH]c1=O)OCCO3` was run?
Answer: inactive: -2.04%

Question: `CCOC(=O)C1=C(C)N=c2s/c(=C/c3ccc(OCC(=O)O)cc3)c(=O)n2C1c1ccc(SC)cc1` (centres undefined) was tested. Which Potency did it give?
Answer: inconclusive: 31.6 µM [inhibitor, single point]

Question: With `Cc1oc2c(c1C(=O)O)C(=O)c1ccccc1C2=O` as the compound, how does the Potency read?
Answer: inconclusive: 28.2 µM [inhibitor, single point]

Question: For `CCN1C(=O)S/C(=C/c2ccc(Oc3ccc([N+](=O)[O-])cn3)c(OC)c2)C1=O`, which Potency is on record?
Answer: inconclusive: 0.112 µM [inhibitor, full curve, poor fit]

Question: How did the Potency turn out when `O=C(COC(=O)C1CC1)NC(=O)NCc1ccccc1` was run?
Answer: inconclusive: 0.794 µM [inhibitor, single point]

Question: `O=S(=O)(Nc1c(S(=O)(=O)c2ccccc2)c2nc3ccccc3nc2n1C1CCCCC1)c1ccccc1` was tested. Which Potency did it give?
Answer: inconclusive: 17.8 µM [inhibitor, partial curve]

Question: With `O=[N+]([O-])c1ccccc1/C=C\C=N\N1CCN(c2ccccc2)CC1` as the compound, how does the Potency read?
Answer: inconclusive: 3.16 µM [inhibitor, full curve, poor fit]

Question: `CCc1nc(SCc2cc(Cl)ccc2OC)n[nH]1` was tested. Which Potency did it give?
Answer: inconclusive: 39.8 µM [inhibitor, single point]

Question: `Clc1ccc(-c2csc(N/N=C/c3ccco3)n2)cc1` was tested. Which Potency did it give?
Answer: inconclusive: 15.8 µM [inhibitor, partial curve]

Question: For `CCOc1cc(CNc2ccc(O)cc2)ccc1OCc1ccc(Cl)cc1Cl`, which Potency is on record?
Answer: inconclusive: 31.6 µM [inhibitor, partial curve]

Question: With `Oc1ccc(CNc2ccc(C(F)(F)F)cc2Cl)c2cccnc12` as the compound, how does the Potency read?
Answer: inconclusive: 35.5 µM [inhibitor, single point]

Question: For `O=C(O)CCNc1ccc(Cl)cc1`, which Potency is on record?
Answer: inconclusive: 3.16 µM [inhibitor, partial curve]

Question: `COc1ccc(N2CCN(C(=O)COC(=O)Cc3cccc(OC)c3)CC2)cc1` was tested. Which Potency did it give?
Answer: inconclusive: 7.08 µM [inhibitor, single point]

Question: Which Potency does the source give for `COc1ccc(NC(=O)c2ccc(N3C(=O)C4CC=C(Cl)CC4C3=O)cc2)cc1` (centres undefined) here?
Answer: inconclusive: 44.7 µM [inhibitor, single point]

Question: `CN(C)c1ccc(C(CNS(=O)(=O)c2ccc(F)cc2)c2c[nH]c3ccccc23)cc1` (centres undefined) was tested. Which Potency did it give?
Answer: inconclusive: 17.8 µM [inhibitor, single point]

Question: For `Cc1ccc(-c2nc(C)sc2CC(=O)Nc2nnc(C)s2)cc1`, which Potency is on record?
Answer: inconclusive: 0.126 µM [inhibitor, full curve, poor fit]

Question: `CN(C)c1ccc(NC(=O)CSc2nc(N)c(C(=O)Nc3ccc(N(C)C)cc3)s2)cc1` was tested. Which Potency did it give?
Answer: inconclusive: 35.5 µM [inhibitor, single point]

Question: Which Potency does the source give for `Cc1ccc(CNC(=O)CCS(=O)(=O)c2cc(Br)cc3c2N(C(=O)C2CC2)CC3)o1` here?
Answer: inconclusive: 39.8 µM [inhibitor, single point]

Question: `Cc1ccc(C(=O)N2NC(c3ccc(F)cc3)C3C(=O)N(c4ccc(C)cc4)C(=O)C32)cc1` (centres undefined) was tested. Which “activity, negative = inhibition” value did it give?
Answer: inactive: -4.8%

Question: For `CC(=O)c1c(C)[nH]c(C(=O)Nc2ccc(C)c(S(=O)(=O)N(C)C)c2)c1C`, which Potency is on record?
Answer: inconclusive: 39.8 µM [inhibitor, single point]

Question: `Cc1ccc(S(=O)(=O)Nc2ccccc2-c2ccccc2NS(=O)(=O)c2ccc(C)cc2)cc1` was tested. Which Potency did it give?
Answer: inconclusive: 39.8 µM [inhibitor, single point]

Question: With `O=C(CNC(=O)c1cccc(F)c1)N/N=C/c1cc(Br)ccc1OC(=O)/C=C/c1ccco1` as the compound, how does the Potency read?
Answer: inconclusive: 39.8 µM [inhibitor, single point]

Question: `COc1ccc(/C=N/Nc2ccccn2)cc1O` was tested. Which “activity, negative = inhibition” value did it give?
Answer: inactive: -4.51%

Question: With `COc1cccc(C(=O)NN2CC(O)=C(c3nc(C)cs3)C2=N)c1` as the compound, how does the “activity, negative = inhibition” value read?
Answer: inactive: 1.77%

Question: `Oc1ccc(CN2CCN(Cc3ccccc3)CC2)c2cccnc12` was tested. Which “activity, negative = inhibition” value did it give?
Answer: inactive: -2.16%

Question: How did the Potency turn out when `Brc1ccccc1CN1CCC(N2CCCCC2)CC1` was run?
Answer: inconclusive: 39.8 µM [inhibitor, single point]

Question: Which “activity, negative = inhibition” value does the source give for `COc1ccc(C(c2sc3nc(C)nn3c2O)N2CCC(C(N)=O)CC2)cc1OC` (centres undefined) here?
Answer: inactive: 1.72%

Question: Which “activity, negative = inhibition” value does the source give for `COc1ccc(C(=O)Nc2ccc(OCc3ccccc3)cc2)cc1[N+](=O)[O-]` here?
Answer: inactive: -0.23%

Question: For `O=C(/C=C/c1ccc([N+](=O)[O-])cc1)Nc1cccc(C(=O)Nc2ccccc2C(=O)O)c1`, which activity, negative = inhibition is on record?
Answer: inconclusive: -95.9% [inhibitor]

Question: For `CC(C)[N+](C)(CCOC(=O)C1c2ccccc2Oc2ccccc21)C(C)C`, which “activity, negative = inhibition” value is on record?
Answer: inactive: 6.12%

Question: For `O=S(=O)(Nc1ccc(-c2ccc3nncn3n2)cc1)c1ccccc1Cl`, which “activity, negative = inhibition” value is on record?
Answer: inactive: 22.3%

Question: How did the “activity, negative = inhibition” value turn out when `COc1ccc(CC2C(=O)OC(C)(C)OC2=O)cc1` was run?
Answer: inactive: -1.19%

Question: For `Cc1cc2n(n1)SC(Nc1cc(Cl)ccc1Cl)N2` (centres undefined), which Potency is on record?
Answer: inconclusive: 4.47 µM [inhibitor, single point]

Question: With `O=C(Cn1nnc2ccccc21)NNC(=S)NC1CCCCC1` as the compound, how does the “activity, negative = inhibition” value read?
Answer: inactive: -13%

Question: Which “activity, negative = inhibition” value does the source give for `Oc1ccc(O)c2c1C1c3ccccc3C2c2ccccc21` here?
Answer: inactive: -11.7%

Question: For `CSc1ccc(S(=O)(=O)NCC(=O)OCC(=O)N2CC(C)CC(C)C2)cc1[N+](=O)[O-]` (centres undefined), which “activity, negative = inhibition” value is on record?
Answer: inactive: -7.95%

Question: How did the “activity, negative = inhibition” value turn out when `CCOC(=O)c1c(NS(C)(=O)=O)sc2c1CCC(C)C2` (centres undefined) was run?
Answer: inactive: -5.63%

Question: With `O=C(NC1CCCCC1)C1CCCN1S(=O)(=O)c1cccc2nsnc12` (centres undefined) as the compound, how does the Potency read?
Answer: inconclusive: 7.08 µM [inhibitor, single point]

Question: How did the Potency turn out when `CN1c2ccccc2N(C)C1(C)c1ccccc1` was run?
Answer: inconclusive: 22.4 µM [inhibitor, single point]

Question: Which Potency does the source give for `COC(=O)c1sccc1-n1cccc1C(=O)C(=O)Nc1ccc(F)cc1` here?
Answer: inconclusive: 39.8 µM [inhibitor, single point]

Question: Which “activity, negative = inhibition” value does the source give for `CCOc1ccc(C(=O)Nc2ccc(NC(=S)NC(=O)CC)cc2)cc1Cl` here?
Answer: inactive: 1.08%

Question: With `Cc1ccc(NC(=S)N/N=C/c2ccc([N+](=O)[O-])s2)cc1` as the compound, how does the Potency read?
Answer: inconclusive: 28.2 µM [inhibitor, partial curve]

Question: For `CCN(Cc1nc2cc(Cl)ccc2c(=O)[nH]1)C(=O)c1cccc(NC(=O)c2cccs2)c1`, which Potency is on record?
Answer: inconclusive: 0.708 µM [inhibitor, single point]

Question: How did the Potency turn out when `CCCN(CCC)C(=O)CSc1ncccc1C(=O)O` was run?
Answer: inconclusive: 31.6 µM [inhibitor, single point]

Question: How did the Potency turn out when `CCCNC(=O)OCC12CC3CC(CC(C3)C1)C2` was run?
Answer: inconclusive: 4.47 µM [inhibitor, single point]

Question: For `CCC(/C=C1\Sc2ccc(OC)cc2N1CCO)=C\c1sc2ccc(OC)cc2[n+]1CCO`, which Potency is on record?
Answer: inconclusive: 25.1 µM [inhibitor, partial curve]

Question: With `OCc1cn(-c2ccccc2)nn1` as the compound, how does the Potency read?
Answer: inconclusive: 0.112 µM [inhibitor, full curve]

Question: `COc1cc(/C=C/C(=O)c2ccc(O)cc2)ccc1OCC#N` was tested. Which “activity, negative = inhibition” value did it give?
Answer: inactive: -3.76%

Question: Which “activity, negative = inhibition” value does the source give for `COCCN(C(=O)COC(=O)C1CCC(C(C)(C)C)CC1)c1c(N)n(Cc2ccccc2)c(=O)[nH]c1=O` (centres undefined) here?
Answer: inactive: 10.6%

Question: How did the “activity, negative = inhibition” value turn out when `COc1ccc(-c2csc(N3CCN(C(=O)c4ccco4)CC3)n2)cc1` was run?
Answer: inactive: -16.9%

Question: How did the Potency turn out when `Cc1cn(-c2ccccc2)c(C)c1/C=N\Nc1nc(N2CCOCC2)nc(N2CCOCC2)n1` was run?
Answer: inconclusive: 25.1 µM [inhibitor, single point]

Question: With `O=C(COC(=O)/C=C/c1ccc(Cl)cc1)Nc1cccc(S(=O)(=O)NC2=NCCCCC2)c1` as the compound, how does the “activity, negative = inhibition” value read?
Answer: inactive: -7.51%

Question: How did the Potency turn out when `COc1ccc(NC2=Nc3cccc4cccc2c34)cc1` was run?
Answer: inconclusive: 39.8 µM [inhibitor, partial curve]

Question: Which Potency does the source give for `O=[N+]([O-])c1ccccc1S(=O)(=O)N1CCN(S(=O)(=O)c2ccc3c(c2)OCCO3)CC1` here?
Answer: inconclusive: 0.708 µM [inhibitor, single point]

Question: Which “activity, negative = inhibition” value does the source give for `Nc1ccc(N2CCN(c3cccc(Cl)c3)CC2)cc1` here?
Answer: inactive: -26.1%

Question: Which Potency does the source give for `COc1ccc(NC(=O)COC(=O)C2CC(=O)N(CCc3ccc(OC)c(OC)c3)C2)cc1Cl` (centres undefined) here?
Answer: inconclusive: 0.708 µM [inhibitor, single point]

Question: With `CCN(CC)C(=O)c1c2c(nc3ccccc13)-c1ccccc1CC2` as the compound, how does the Potency read?
Answer: inconclusive: 6.31 µM [inhibitor, single point]

Question: Which Potency does the source give for `O=C(O)C1CN(c2nc(Cl)ccc2[N+](=O)[O-])C1` here?
Answer: inconclusive: 28.2 µM [inhibitor, single point]

Question: With `C#CCOCCOCCOCCNc1nc(N2CCOCC2)nc(N2CCN(C(=O)CCCCCCCCCCNC(=O)[C@@H](CCC(=O)O)n3cc(CCCCCN)nn3)CC2)n1` as the compound, how does the “activity, negative = inhibition” value read?
Answer: inactive: 5.46%

Question: For `CC(=O)N1c2ccccc2C2(O)N=C(C)SC12` (centres undefined), which “activity, negative = inhibition” value is on record?
Answer: inactive: -5.75%

Question: For `N#C/C(=C/c1cccn1-c1cccc(C(=O)O)c1)c1ccc(F)cc1`, which Potency is on record?
Answer: inconclusive: 31.6 µM [inhibitor, partial curve]

Question: How did the “activity, negative = inhibition” value turn out when `CCOc1ccc2ccccc2c1C(=O)N[C@@H]1C(=O)N2[C@@H]1SC(C)(C)[C@@H]2C(=O)O` was run?
Answer: inactive: 0.587%

Question: With `O=C(Nc1ccccc1)N(Cc1ccc(Cl)cc1)CC(O)C(F)(F)F` (centres undefined) as the compound, how does the Potency read?
Answer: inconclusive: 0.708 µM [inhibitor, single point]
